Among all 310,000 compounds or so, about 2,200 (0.71%) showed an effect of 50% or more. Effects have a minus sign here. The list shows a part of the results.
target: human ether-à-go-go-related gene (hERG) potassium channel (human, UniProt Q12809); experiment: primary screen, population patch clamp on CHO cells stably expressing hERG
Sequence (Q12809 whole entry, looked up): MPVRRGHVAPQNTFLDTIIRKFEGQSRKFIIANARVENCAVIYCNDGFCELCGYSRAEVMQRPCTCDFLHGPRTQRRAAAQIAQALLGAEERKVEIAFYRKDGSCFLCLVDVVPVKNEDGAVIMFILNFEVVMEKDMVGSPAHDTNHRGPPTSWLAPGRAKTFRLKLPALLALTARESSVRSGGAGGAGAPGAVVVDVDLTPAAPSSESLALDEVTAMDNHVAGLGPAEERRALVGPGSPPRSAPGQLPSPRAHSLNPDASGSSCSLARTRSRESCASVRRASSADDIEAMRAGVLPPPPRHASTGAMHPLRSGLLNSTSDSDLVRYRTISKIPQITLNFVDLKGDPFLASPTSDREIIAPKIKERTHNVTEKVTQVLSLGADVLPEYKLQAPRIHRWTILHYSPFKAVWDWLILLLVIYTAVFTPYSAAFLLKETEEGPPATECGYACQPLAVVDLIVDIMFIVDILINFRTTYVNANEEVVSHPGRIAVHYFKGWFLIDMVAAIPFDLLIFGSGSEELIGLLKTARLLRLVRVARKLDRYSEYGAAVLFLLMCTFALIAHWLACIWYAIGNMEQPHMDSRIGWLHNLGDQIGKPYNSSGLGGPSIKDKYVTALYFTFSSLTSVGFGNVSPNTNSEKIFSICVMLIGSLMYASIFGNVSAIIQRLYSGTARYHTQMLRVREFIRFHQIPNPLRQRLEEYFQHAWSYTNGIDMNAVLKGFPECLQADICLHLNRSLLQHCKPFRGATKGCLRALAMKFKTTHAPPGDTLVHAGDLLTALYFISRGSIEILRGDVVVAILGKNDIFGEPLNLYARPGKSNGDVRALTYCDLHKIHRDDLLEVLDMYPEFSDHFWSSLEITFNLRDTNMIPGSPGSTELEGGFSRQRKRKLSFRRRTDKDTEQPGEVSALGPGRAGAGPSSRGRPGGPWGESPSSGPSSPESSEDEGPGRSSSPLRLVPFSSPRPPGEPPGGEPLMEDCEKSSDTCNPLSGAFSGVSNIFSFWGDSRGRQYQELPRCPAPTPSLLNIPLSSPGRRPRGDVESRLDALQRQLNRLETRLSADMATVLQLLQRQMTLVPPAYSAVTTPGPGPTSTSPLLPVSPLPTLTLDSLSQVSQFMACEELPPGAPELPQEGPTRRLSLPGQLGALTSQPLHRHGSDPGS

Row | SMILES | hERG current change (%, negative = inhibition) at 1uM
1 | Cc1cccc(/C=N/NC(=O)Cc2cccs2)c1 | 12.3%
2 | Cc1n[nH]c(=O)c2c(NC(=O)CSc3nn(-c4ccccc4)c(=S)s3)oc(C)c12 | 13.9%
3 | O=C(NCCC1=CCCCC1)C1CCN(S(=O)(=O)c2cccs2)CC1 | -1.95%
4 | O=C(OCC#CCSc1nc2ccccc2o1)c1ccco1 | 4.36%
5 | COC(C(=O)N/N=C(\C)c1ccc(C(C)(C)C)cc1)c1ccccc1 (centres unmarked) | 12%
6 | COc1ccc(CCC(C)Nc2ccccc2F)cc1 (centres unmarked) | 9.36%
7 | Cc1cc(O)c(C(C)C)cc1N=Cc1ccccc1O | 8.6%
8 | CN1CCN(CCOc2ccc(-c3ccccc3)cc2)CC1.Cl | 3.27%
9 | CC1=C(C(=O)Nc2ccccc2F)C(c2cccs2)NC(=S)N1 (centres unmarked) | -0.728%
10 | O=C(Nc1c2c(nn1-c1ccc(F)cc1)CS(=O)C2)c1ccc(Br)o1 (centres unmarked) | 10.4%
11 | COc1ccc(-c2nn3c(COc4ccccc4)nnc3s2)cc1OC | 9.72%
12 | COc1ccc(C)cc1NC(=O)CN1C(=O)COc2ccc(C)cc21 | 19.8%
13 | Cn1c(SCc2cccc3ccccc23)nnc1-c1ccco1 | 5.48%
14 | C=CCn1c(=O)c2ccccc2n2c(SCC(=O)N3CCCc4ccccc43)nnc12 | 4.03%
15 | CCCCC(c1nnnn1CCOC)N1CCN(C)CC1.Cl (centres unmarked) | 7.55%
16 | NC(=O)C(c1ccc(Cl)cc1)c1ccc(Sc2ccccc2)nn1 (centres unmarked) | 4.5%
17 | COc1cc(C(C2C(=O)CC(C)(C)CC2=O)C2C(=O)CC(C)(C)CC2=O)ccc1O | 8.07%
18 | CCOC(=O)c1c(CN(C)C)n(-c2ccccc2)c2cc(Br)c(O)cc12.Cl | -37.2%
19 | O=c1[nH]c(SCc2n[nH]c(=S)n2-c2ccccc2)nc2ccccc12 | 13.3%
20 | O=C1c2cccc3cccc(c23)C(=O)N1c1nccs1 | 0.0267%
21 | CC(C)(C)OC(=O)NCc1ccc(CNC(=O)c2[nH]cnc2C(=O)N[C@@H](Cc2ccccc2)C(=O)OCc2ccccc2)cc1 | -0.608%
22 | Cn1nc(C(F)(F)F)c(C#N)c1N1CCN(c2ccccc2)CC1 | -9.29%

Row | SMILES | hERG current change (%, negative = inhibition) at 1uM
23 | COc1ccc(C(=O)Cn2nc(CNc3ccc(Br)cc3)[n+]3c2CCCCC3)cc1.[Br-] | 12.1%
24 | O=S(=O)(c1ccccc1)N1CCN(CCc2ccccc2)CC1 | 9.11%
25 | CC(C)c1ccc(NC(=O)CCNS(=O)(=O)c2ccc3[nH]c(=O)oc3c2)cc1 | 16.5%
26 | O=C(NCCc1cccc(Cl)c1)c1cc2ccccc2oc1=O | 12.5%
27 | O=C(O)c1cccc(NC(=S)NC(=O)c2ccc(-c3ccc(Cl)cc3)o2)c1 | 14.9%
28 | O=C(COC(=O)c1cc([N+](=O)[O-])ccc1N1CCOCC1)NC1CCCCC1 | -6.8%
29 | CC(C(=O)NCC1(c2ccccc2)CCOCC1)N1CCOCC1.Cl (centres unmarked) | 25.4%
30 | O=C(NCCCc1ccccc1)c1ccncc1 | -4.47%
31 | CCn1c(SCC(=O)NCc2ccco2)nc2c(c1=O)SC(C)C2 (centres unmarked) | 5.05%
32 | CC(OC(=O)CNC(=O)c1sc2ccccc2c1Cl)C(=O)NC1(C#N)CCCCC1 (centres unmarked) | 12.2%
33 | O=C(NC(=S)Nc1ncccn1)c1ccccc1Cl | 12.7%
34 | O=C(NCCc1c[nH]c2ccccc12)C(F)(F)F | 13.6%
35 | Cc1ccc(S(=O)(=O)CCC(=O)NCCc2ccccc2)cc1 | 12.2%
36 | CC(=O)[C@@H]1[C@@H]2C(=O)N(C3CCCCC3)C(=O)[C@@H]2C2c3ccccc3C=CN21 (some centres unmarked) | 10.4%
37 | O=C(CNC(=O)c1ccc(Br)o1)Nc1ccncc1 | 1.96%
38 | O=C(CSc1n[nH]c(-c2cccs2)n1)NC1CCS(=O)(=O)C1 (centres unmarked) | 13.1%
39 | Cc1sc(-c2c(C#N)c(N)nc3c2CCCCCC3)cc1[N+](=O)[O-] | 1.92%
40 | Nc1cccc(C(=O)OCC(=O)Nc2cccc3c2C(=O)c2ccccc2C3=O)c1 | 14.1%
41 | O=C(Nc1cccc2ccccc12)c1cnccn1 | 4.55%
42 | Nc1c(NCCN2CCOCC2)c2ccccc2oc1=O | 10.3%
43 | C=CCN=C(NC#N)SCc1ccccc1 | 18.3%
44 | CCOC(=O)C1=C(C)NC(=O)NC1c1ccc(Br)s1 (centres unmarked) | 3.47%
